Results from PubChem BioAssay AID1240 (Sanford-Burnham Center for Chemical Genomics, 2008).
Screen size: about 50,000 compounds; about 800 (1.6%) showed an effect of 50% or more. The list shows a part of the results.

Target: Bcl-2-like protein 10 (Homo sapiens) (UniProt Q9HD36)
Experiment: Phenotype converters, Bcl-B/TR3 peptide binding displacement, primary biochemical FP (AID 1240);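 note: 0% = Bcl-B with tracer peptide and DMSO and 100% = tracer peptide lacking Bcl-B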
Details: GST-Bcl-B / FITC-TR3 peptide fluorescence polarization; stronger effect = higher value; compound at 3.75 mg/L

UniProt Q9HD36, sequence (Q9HD36 whole entry, looked up): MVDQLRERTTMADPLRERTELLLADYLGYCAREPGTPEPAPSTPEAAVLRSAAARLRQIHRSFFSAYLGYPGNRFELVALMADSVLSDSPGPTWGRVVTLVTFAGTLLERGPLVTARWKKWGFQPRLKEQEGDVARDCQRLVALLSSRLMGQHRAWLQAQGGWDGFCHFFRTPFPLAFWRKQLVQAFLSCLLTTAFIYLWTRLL

| Compound | displacement [%] |
| --- | --- |
| CN1CCN(Cn2c(O)c(N=NC(=O)COc3ccc(Cl)cc3)c3ccccc32)CC1 | -8.1 |
| CCC1CCc2c(sc(NC(=O)c3ccc(Br)o3)c2C(=O)OC)C1 (stereo unspecified) | -64.2 |
| O=C1C2C3C=CC(C3=C3C4CC5CC(C4)CC3C5)C2C(=O)N1c1cc(Cl)cc(Cl)c1 (stereo unspecified) | 0.6 |
| Cc1onc(-c2c(Cl)cccc2Cl)c1C(=O)Nc1ccc(N(C)C)cc1 | 12.1 |
| Cc1ccc(C(C)C)c(OCCNC(=O)c2cc(F)c(F)cc2Cl)c1 | -2.5 |
| CCc1ccccc1NC(=O)c1nn2c(c1Cl)NC(c1cccs1)CC2C(F)(F)F (stereo unspecified) | 0.5 |
| O=C(CC1S/C(=N\N=C\c2cccs2)NC1=O)Nc1ccccc1C(F)(F)F (stereo unspecified) | -17.9 |
| CCOc1cc(C(=O)Nc2sc(C)c(C)c2C(=O)OC)cc(OCC)c1OCC | -4.9 |
| O=C(NCc1ccccn1)C(=O)N/N=C/c1ccc(Cl)cc1 | -2.9 |
| COc1cc(/C=C2/C(=O)NN(c3ccc(F)c(Cl)c3)C2=O)ccc1OC(C)=O | 7.1 |
| COc1ccc(N(CC(=O)NCC2CCCO2)S(=O)(=O)c2ccc(OC)c(OC)c2)cc1 (stereo unspecified) | 13.6 |
| O=C(c1ccccc1Cl)N1CCN(c2nc3ccccc3s2)CC1 | 0.4 |
| COc1ccccc1N=C(C)C1=C(O)CSC1=O | 1.4 |
| CCOc1ccc(-c2cnc(N)nc2N)cc1 | -3 |
| CC(C)CC1CC(C)(C(=O)CSc2n[nH]c(-c3ccccc3)n2)OC1=O (stereo unspecified) | 0 |
| Fc1c(F)c(F)c(-c2c(F)c(F)c(N3CCOCC3)c(F)c2F)c(F)c1F | 2.6 |
| COC(=O)c1ccc(/C=C2/C=C(c3ccc(OC)cc3)OC2=O)cc1 | -46.3 |
| Cc1ccc(-n2[nH]c(=O)c(/C=C3\C=Nc4ccccc43)c2O)cc1Cl | 11.5 |
| O=S(=O)(Nc1nc2ccccc2nc1-n1cnc2ccccc21)c1ccccc1 | 29.3 |
| O=C(NN1C(=O)C2C3C=CC(C4CC34)C2C1=O)c1cccc(Br)c1 (stereo unspecified) | 0.5 |
| O=C1CCNc2c(Cl)cc(Cl)cc21 | 88.6 |
| O=C(Nc1cccc2nsnc12)c1cccc(OCc2ccccc2)c1 | 6 |
| O=C1CSC(=O)N1CNc1ccccn1 | 14.5 |
| O=C1c2ccccc2C(=O)N1CCCCN(C(=O)c1cc2ccccc2oc1=O)c1ccc(F)cc1F | 11.4 |

| Compound | displacement [%] |
| --- | --- |
| Cc1cc(C)c(N2C(=O)c3ccccc3C2=O)c([N+](=O)[O-])c1 | 5.4 |
| O=C(CC1SC(=O)NC1=O)Nc1cccc(O)c1 (stereo unspecified) | 8.6 |
| O=C(O)/C=C/C(=O)Nc1cc([N+](=O)[O-])ccc1F | 8.2 |
| C=C(C)c1cccc(C(C)(C)NC(=O)NCCCN(C)C)c1 | 0 |
| O=C(O)c1ccccc1N=Cc1cc(Cl)ccc1O | 2.7 |
| COc1ccc(C(=O)N=Nc2c(O)n(CN3CCCC3)c3ccc(Br)cc23)cc1 | -8.9 |
| CCOC(=O)c1ccc(-c2ccccc2)cc1 | 8.4 |
| Cc1ccc(N2CC(C(=O)Nc3ccccc3Br)CC2=O)cc1 (stereo unspecified) | 11.9 |
| CCOC(=O)c1c(-c2ccccc2)csc1-n1c(C)ccc1C | 1.7 |
| O=C(/C=C/c1cccc(C(F)(F)F)c1)Nc1cccc(Cl)c1 | 14.9 |
| CCCCOC(=O)c1cccc(NC(=O)c2ccc(OC)cc2)c1 | -3.1 |
| CSc1nccn1CC(=O)Nc1ccccc1 | 9.6 |
| COc1ccc(N2C(=O)NC(=O)C(=Cc3ccccc3OCC(=O)O)C2=O)cc1 | 7.3 |
| Cc1cc2nc(-c3ccc(C)c(NC(=O)c4ccc([N+](=O)[O-])cc4)c3)oc2cc1C | -8 |
| Cc1ccc(S(=O)(=O)Nc2ccc(S(=O)(=O)NC(=O)C(C)C)cc2)cc1 | 13.8 |
| CC(C)(C)c1nnc(NC(=O)Nc2ccccc2)s1 | -11.6 |
| CCN=C(NCC)SC1CC(=O)N(c2cccc(OC)c2)C1=O (stereo unspecified) | 1.8 |
| Cc1ccc(CNC(=O)C(=O)NC(C)C)cc1 | 4.4 |
| Cc1ccc(OCC(=O)Nc2ccc(O)cc2)cc1C | 12.9 |
| CCCCOC(=O)c1ccc(NC(=S)NC(NC(=O)Cc2ccccc2)C(Cl)(Cl)Cl)cc1 (stereo unspecified) | -1.3 |
| CN(C)/C=C1\N=C(c2ccc3c(c2)OCO3)OC1=O | 39.7 |
| Cc1ccc(OCc2nnc(NC(=O)Nc3ccc(Cl)cc3)s2)cc1C | 5 |
| CCOc1ccc(S(=O)(=O)N2CCOCC2)cc1 | 13.8 |
| O=C(NCCc1ccccc1)c1nn2c(c1Cl)NC(c1ccc(Cl)cc1)CC2C(F)(F)F (stereo unspecified) | -1.1 |

| Compound | displacement [%] |
| --- | --- |
| CC(C)(C)c1ccc(/C=C/C(=O)NCCCN2CCOCC2)cc1 | -1.9 |
| O=C(Nc1cccc([N+](=O)[O-])c1)c1cc(-c2ccccc2Cl)nc2ccccc12 | -2.5 |
| CCOC(=O)c1nc(NC(=O)/C=C/c2ccco2)sc1C | 73.7 |
| Cc1nnc(N/N=C/c2ccc(Cl)c([N+](=O)[O-])c2)[nH]c1=O | 1.9 |
| NNC(=O)c1cc(-c2ccc(Br)cc2)n[nH]1 | -18 |
| CN(C)c1ccc(/C=C2\SC(N3CCCCCC3)=NC2=O)cc1 | -108 |
| Nc1nnc(SCc2ccccc2[N+](=O)[O-])s1 | -6 |
| O=C(CSc1nnc(CCCN2C(=O)c3cccc4cccc(c34)C2=O)n1-c1ccccc1)N1CCN(CCO)CC1 | 10 |
| O=S(=O)(N=Nc1c(O)[nH]c2ccccc12)c1ccc(Cl)cc1 | 13 |
| Cc1cc(Cl)ccc1NC(=O)CN(Cc1ccccc1)S(=O)(=O)c1ccccc1 | -2.1 |
| O=C(Cc1ccc(Cl)cc1)NCCN1CCOCC1 | 1.7 |
| Cc1ccc(-n2nc3ccc(NC(=O)c4ccco4)cc3n2)cc1Cl | -33.8 |
| COc1ccccc1NC(=O)c1cccnc1 | -17.7 |
| COC(=O)c1ccc(N2C(=O)C=CC2=O)cc1 | -5 |
| O=c1/c(=C/c2cn(CCOc3ccc(Br)cc3)c3ccccc23)sc2nc3ccccc3n12 | 16.9 |
| COc1cccc(CN2CCN(C(=O)c3cccc(Cl)c3)CC2)c1OC | 2.3 |
| O=C(NCc1cc(Br)cc(Br)c1OC(=O)c1ccc([N+](=O)[O-])cc1)c1ccccc1 | 20.4 |
| Fc1ccc(NC(=S)N2CCCC2)cc1 | 10.1 |
| O=C(O)c1cc(NC(=O)c2ccccc2)cc(C(=O)O)c1 | 11.4 |
| Nc1nnc(SCC(=O)c2ccc3c(c2)Cc2ccccc2-3)s1 | 31.3 |
| C/C(=N\Nc1nc(C(C)(C)C)cs1)c1ccccc1O | -21 |
| O=C(c1ccc(C#Cc2ccccc2)cc1)N1CCN(C(=O)c2ccc(C#Cc3ccccc3)cc2)CC1 | 5.7 |
| CC1(C)CC(=O)C2=C(C1)OC1=C(C(=O)CC(C)(C)C1)C2c1ccccc1OCC(=O)O | 3.2 |
